PubChem BioAssay (Tox21)
“And” between values parts separate entries of the source, which are not always exact repeats. Equal entries are not always repeated. Inconclusive results, whose numbers are uncertain, are shown with a selection of clear calls. For some of these results: Where the call is inconclusive, the potency comes from a doubtful curve fit. The source made the active and inactive calls. Unless noted, the call rests on the fitted dose curve; in most records, active means well fitted curve in the direction sought with a large enough effect in the repeat runs; inconclusive means weak or mixed curves; inactive means no such curve, though single readings can be large; an effect the other way counts as inactive or inconclusive.

Experiments:
[1] = qHTS assay to identify small molecule that activate the aryl hydrocarbon receptor (AhR) signaling pathway - cell viability counter screen (AID 743086); further: potency means the concentration at half of the fitted maximal effect; nearly all actives have a fitted effect of over 45% in size
In short: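 Cytotoxicity counter screen: CellTiter-Fluor signal (30 min, 37 C) in 4000 HepG2 cells/well carrying the DRE-luciferase reporter, following 24 h compound exposure at 37 C.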

[2] = qHTS assay to identify small molecule antagonists of the peroxisome proliferator-activated receptor gamma (PPARg) signaling pathway - cell viability counter screen (AID 743194); settings: PPARg-bla HEK293H viability, CellTiter-Glo luminescence, 17 h, co-treated with 50 nM rosiglitazone; activity change, negative = cytotoxicity: at 62.6 µM (top of the series) unless noted; further: potency means the concentration at half of the fitted maximal effect; nearly all actives have a fitted effect of over 55% in size
In short: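 Viability was measured as CellTiter-Glo luminescence in GeneBLAzer PPARg UAS-bla HEK293H cells. These cells had been exposed 17 h at 37 C to compounds together with rosiglitazone at 50 nM final, with the beta-lactamase readout taken in the same wells.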

[3] = qHTS assay for small molecule agonists of the antioxidant response element (ARE) signaling pathway - cell viability counter screen (AID 743203; calls by dose curve; further: potency means the concentration at half of the fitted maximal effect; nearly all actives have a fitted effect of over 55% in size); settings: ARE-bla HepG2 viability, CellTiter-Glo luminescence, 16 h; viability change, negative = cytotoxic: at 73.3 µM (top of the series)
In short: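 ARE-bla HepG2 cells were plated, rested 5 h at 37C/5% CO2, then exposed to compounds in DMSO for 16 h. Viability was read as CellTiter-Glo luminescence after 30 min at room temperature, in the same wells as the ARE screen.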

[4] = qHTS assay for small molecule activators of the heat shock response signaling pathway - cell viability counter screen (AID 743209); settings: HSE-bla HeLa viability, CellTiter-Glo luminescence, 5 h; activity change, negative = cytotoxicity: at 62.6 µM (top of the series) unless noted; further: potency means the concentration at half of the fitted maximal effect; nearly all actives have a fitted effect of over 50% in size
In short: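 HSE-bla HeLa cells plated overnight, then exposed to Tox21 compounds (23 nL in DMSO) for 5 h at 37 C. After the bla reporter read, CellTiter-Glo was added in the same wells and luminescence read after 30 min at room temperature.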

[5] = qHTS assay for small molecule activators of the heat shock response signaling pathway (AID 743210; active means well fitted activation curve with a large enough effect in the signal ratio in the repeat runs, with a control signal flat, not every such curve was filed as active; inconclusive means weak or mixed curves; the % refers to the signal ratio; further: potency means the concentration at half of the fitted maximal effect;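 on activation: HeLa cells with beta-lactamase reporter driven by heat shock elements; on the % scale 0 is the no-effect control and ±100 the full control effect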); settings: HeLa HSE-bla reporter, beta-lactamase ratio, 5 h; activation: at 62.6 µM (top of the series)
In short: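 HeLa HSE-bla cells, overnight plating; cpd in DMSO 5 h, 37 C; LiveBLAzer B/G FRET substrate 2.5 h RT; fluorescence intensity read.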

[6] = target: Peroxisome proliferator-activated receptor delta (Homo sapiens) (UniProt Q03181); test: qHTS assay to identify small molecule agonists of the peroxisome proliferator-activated receptor delta (PPARd) signaling pathway (AID 743212; calls by dose curve; further: on the % scale 0 is the no-effect control and ±100 the full control effect); settings: HEK293H PPARd-UAS-bla, beta-lactamase FRET ratio, 17 h; activation: at 62.6 µM (top of the series) unless noted
In short: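 HEK293H PPARd-bla cells; 5 h preincubation 37 C/5% CO2; compound (DMSO) 37 C; LiveBLAzer B/G FRET substrate 2 h RT; fluorescence intensity.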

[7] = qHTS assay to identify small molecule antagonists of the peroxisome proliferator-activated receptor delta (PPARd) signaling pathway - cell viability counter screen (AID 743213); settings: PPARd-bla HEK293H viability, CellTiter-Glo luminescence, 17 h; viability change, negative = cytotoxic: at 62 µM (top of the series) unless noted; further: potency means the concentration at half of the fitted maximal effect; nearly all actives have a fitted effect of over 50% in size
In short: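 PPARd-bla HEK293H cells (3000/well) got compound plus 300 nM L165041 agonist for 17 h at 37 C. Viability in the same wells came from CellTiter-Glo luminescence after 30 min at room temperature.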

[8] = target: Peroxisome proliferator-activated receptor delta (Homo sapiens) (UniProt Q03181); test: qHTS assay to identify small molecule antagonists of the peroxisome proliferator-activated receptor delta (PPARd) signaling pathway (AID 743215; active means well fitted inhibition curve with a large enough effect in the signal ratio in the repeat runs, not every such curve was filed as active; inconclusive means weak or mixed curves, or effect the other way; inactive means no such curve, though single readings can be large or run the other way; the % refers to the signal ratio;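 further: cells stimulated with agonist L165041 at 300 nM final during compound exposure; potency means the concentration at half of the fitted maximal effect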); settings: HEK293H PPARd-UAS-bla, beta-lactamase FRET ratio, antagonist, 17 h; ratio activity, negative = inhibition: at 62 µM (top of the series) unless noted
In short: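 PPARd-bla HEK293H cells (UAS-bla reporter) preincubated 5 h, then given compound plus 300 nM final L165041 agonist for 17 h at 37 C. Beta-lactamase activity read by LiveBLAzer B/G FRET substrate fluorescence after 2 h at room temperature.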

[9] = target: Bile acid receptor (Homo sapiens) (UniProt Q96RI1); test: qHTS assay to identify small molecule antagonists of the farnesoid-X-receptor (FXR) signaling pathway (AID 743217; active means well fitted inhibition curve with a large enough effect in the signal ratio in the repeat runs, not every such curve was filed as active; inconclusive means weak or mixed curves, or effect the other way; inactive means no such curve, though single readings can be large or run the other way; the % refers to the signal ratio; further: potency means the concentration at half of the fitted maximal effect); settings: HEK293T FXR-UAS-bla, beta-lactamase ratio, CDCA-stimulated, 16 h; activity change, negative = inhibition: at 62.6 µM (top of the series) unless noted
In short: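 FXR-UAS-bla HEK 293T cells (beta-lactamase reporter) given compound plus chenodeoxycholic acid (50 uM final), 16 h at 37C. LiveBLAzer B/G FRET substrate added for 2 h at room temperature; fluorescence read.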

[10] = qHTS assay to identify small molecule agonists of the farnesoid-X-receptor (FXR) signaling pathway - cell viability counter screen (AID 743218); settings: FXR-bla HEK293T viability, CellTiter-Glo luminescence, 16 h; viability change, negative = cytotoxic: at 62.6 µM (top of the series) unless noted; further: potency means the concentration at half of the fitted maximal effect; nearly all actives have a fitted effect of over 45% in size
In short: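 FXR-UAS-bla HEK 293T cells exposed to compounds for 16 h at 37C. Cytotoxicity read in the same wells by CellTiter-Glo luminescence after 30 min at room temperature, following the beta-lactamase FRET read.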

[11] = target: Bile acid receptor (Homo sapiens) (UniProt Q96RI1); test: qHTS assay to identify small molecule agonists of the farnesoid-X-receptor (FXR) signaling pathway (AID 743220; active means well fitted activation curve with a large enough effect in the signal ratio in the repeat runs, not every such curve was filed as active; inconclusive means weak or mixed curves, or effect the other way; the % refers to the signal ratio; further: potency means the concentration at half of the fitted maximal effect); settings: HEK293T FXR-UAS-bla, beta-lactamase FRET ratio, 16 h; activation: at 62.6 µM (top of the series) unless noted
In short: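 Beta-lactamase reporter under UAS control in GeneBLAzer FXR HEK 293T cells (5000/well) measured with LiveBLAzer FRET substrate after 2 h at room temperature. Compound exposure lasted 16 h at 37C.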

[12] = qHTS assay to identify small molecule antagonists of the farnesoid-X-receptor (FXR) signaling pathway - cell viability counter screen (AID 743221; active means well fitted cell-killing curve with a large enough effect in the repeat runs, not every such curve was filed as active; inconclusive means weak or mixed curves, or effect the other way; inactive means no such curve, though single readings can be large or run the other way; further: potency means the concentration at half of the fitted maximal effect; nearly all actives have a fitted effect of over 50% in size); settings: FXR-bla HEK293T viability, CellTiter-Glo luminescence, 16 h; activity change, negative = cytotoxicity: at 62.6 µM (top of the series)
In short: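 Multiplexed counter screen: viability of FXR-bla HEK 293T cells under agonist stimulation by chenodeoxycholic acid (50 uM, final) and test compound for 16 h at 37 C, measured by CellTiter-Glo luminescence in the reporter wells.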

[13] = qHTS assay to identify small molecule antagonists of the vitamin D receptor (VDR) signaling pathway - cell viability counter screen (AID 743225); settings: VDR-bla HEK293T viability, CellTiter-Glo luminescence, 16 h; viability change, negative = cytotoxic: at 61 µM (top of the series) unless noted; further: potency means the concentration at half of the fitted maximal effect; nearly all actives have a fitted effect of over 50% in size
In short: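 HEK293T VDR-bla; cpd + 1a,25-(OH)2D3 3 nM final, 16 h 37C/5% CO2; B/G FRET substrate 2 h RT; then CellTiter-Glo 30 min RT, luminescence.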

[14] = qHTS assay for small molecule agonists of the antioxidant response element (ARE) signaling pathway (AID 743202; active means well fitted activation curve with a large enough effect in the signal ratio in the repeat runs, not every such curve was filed as active; inconclusive means weak or mixed curves, or effect the other way; inactive means no such curve, though single readings can be large or run the other way; the % refers to the signal ratio; further: potency means the concentration at half of the fitted maximal effect); settings: HepG2 ARE-bla reporter, beta-lactamase FRET, 16 h; activation: at 73.3 µM (top of the series) unless noted
In short: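 Quantitative high-throughput format in HepG2 cells bearing an integrated ARE-beta-lactamase reporter. Compound exposure lasted 16 h at 37 C, and fluorescence was read 2 h after adding LiveBLAzer B/G substrate at room temperature.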

[15] = qHTS assay to identify small molecule agonists of the peroxisome proliferator-activated receptor delta (PPARd) signaling pathway - cell viability counter screen (AID 743211); settings: PPARd-bla HEK293H viability, CellTiter-Glo luminescence, 17 h; activity change, negative = cytotoxicity: at 62.6 µM (top of the series); further: potency means the concentration at half of the fitted maximal effect; nearly all actives have a fitted effect of over 55% in size
In short: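 Counter screen for cytotoxicity run in parallel with the PPARd reporter screen. Beta-lactamase reporter HEK293H cells exposed to compounds 17 h; ATP-based CellTiter-Glo luminescence quantified viability.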

[16] = qHTS assay to identify small molecule agonists of the vitamin D receptor (VDR) signaling pathway - cell viability counter screen (AID 743224); settings: VDR-bla HEK293T viability, CellTiter-Glo luminescence, 16 h; activity change, negative = cytotoxicity: at 62.6 µM (top of the series) unless noted
In short: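 VDR-bla cells, 4 h after plating, exposed to compounds for 16 h at 37C; viability then read in the same wells as CellTiter-Glo luminescence after 30 min at room temperature, following the bla FRET read.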
Tags describe the fitted curve by direction and shape or compound fluorescence and quenching.

Sequence of UniProt Q96RI1 (Q96RI1 whole entry, looked up): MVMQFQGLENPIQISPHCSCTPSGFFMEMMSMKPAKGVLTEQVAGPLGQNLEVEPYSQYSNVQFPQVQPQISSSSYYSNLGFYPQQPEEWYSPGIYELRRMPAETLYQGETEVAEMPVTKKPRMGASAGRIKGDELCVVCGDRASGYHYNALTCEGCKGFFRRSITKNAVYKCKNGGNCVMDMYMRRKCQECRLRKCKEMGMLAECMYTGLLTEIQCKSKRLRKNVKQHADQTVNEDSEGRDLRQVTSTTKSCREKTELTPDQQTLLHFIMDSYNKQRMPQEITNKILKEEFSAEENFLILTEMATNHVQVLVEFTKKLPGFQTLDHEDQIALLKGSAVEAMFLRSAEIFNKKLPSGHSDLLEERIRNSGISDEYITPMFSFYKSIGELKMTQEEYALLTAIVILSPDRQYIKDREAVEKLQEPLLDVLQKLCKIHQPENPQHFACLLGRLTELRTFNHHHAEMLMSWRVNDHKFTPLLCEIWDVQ
Sequence of UniProt Q03181 (Q03181 whole entry, looked up): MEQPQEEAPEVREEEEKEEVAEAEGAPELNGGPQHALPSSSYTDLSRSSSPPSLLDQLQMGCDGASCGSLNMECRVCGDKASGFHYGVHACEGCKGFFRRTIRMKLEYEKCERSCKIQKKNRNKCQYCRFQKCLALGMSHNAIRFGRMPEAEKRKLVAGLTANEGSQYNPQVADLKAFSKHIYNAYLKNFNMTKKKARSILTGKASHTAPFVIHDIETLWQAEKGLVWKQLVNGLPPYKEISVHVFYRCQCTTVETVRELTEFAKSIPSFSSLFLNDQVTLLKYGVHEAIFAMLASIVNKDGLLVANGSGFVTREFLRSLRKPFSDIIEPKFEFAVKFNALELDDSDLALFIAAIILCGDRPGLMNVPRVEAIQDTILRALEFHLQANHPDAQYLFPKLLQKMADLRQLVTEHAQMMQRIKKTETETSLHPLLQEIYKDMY

Structure (SMILES)	Potency [1]	Potency [2]	Potency [3]	Potency [4]	Potency [5]	activation [6]	Potency [7]	Potency [8]	Potency [9]	Potency [10]	Potency [11]	Potency [12]	Potency [13]	Potency [14]	Potency [15]	Potency [16]
CSc1ccc2c(c1)N(CCC1CCCCN1C)c1ccccc1S2 (stereo not given)	inconclusive: 26.6 µM [falling, partial curve]	active: 38.7 µM and active: 15 µM	active: 27.2 µM and active: 23.7 µM	active: 54.7 µM and active: 29.8 µM	inconclusive: 54.7 µM [single point] and inconclusive: 33.5 µM [single point]	inconclusive: 16.1%	active: 21.8 µM and active: 13.3 µM	active: 26.6 µM	inconclusive: 54.7 µM [cytotoxic] and inconclusive: 33.5 µM [inhibitor]	active: 21.8 µM and active: 16.8 µM	inconclusive: 61.4 µM [single point] and inconclusive: 33.5 µM [single point]	active: 38.7 µM and active: 29.8 µM	active: 24.4 µM and active: 23.9 µM	–	–	–
C[C@H]1O[C@@H](O[C@H]2[C@@H](O)C[C@H](O[C@H]3[C@@H](O)C[C@H](O[C@H]4CC[C@@]5(C)[C@H](CC[C@@H]6[C@@H]5C[C@@H](O)[C@]5(C)[C@@H](C7=CC(=O)OC7)CC[C@]65O)C4)O[C@@H]3C)O[C@@H]2C)C[C@H](O)[C@@H]1O	inconclusive: 0.0191 µM [falling, full curve, poor fit]	active: 21.9 nM and active: 4.8 nM	–	–	inactive	–	active: 24.6 nM and active: 13.6 nM	–	inconclusive: 43.7 nM [rising, full curve] and inconclusive: 76.8 nM [rising, full curve]	active: 24.6 nM and active: 12.2 nM	inconclusive: 5.4 nM [rising, full curve, poor fit]	inconclusive: 21.9 nM [falling, full curve] and inconclusive: 12.2 nM [falling, full curve]	active: 21.9 nM and active: 13.6 nM	inconclusive: 122 nM [rising, full curve] and inconclusive: 38.1 nM [rising, full curve]	inconclusive: 155 nM [cytotoxic, full curve] and active: 38.5 nM	inconclusive: 0.0097 µM [cytotoxic, full curve]
